The text below walks through data of a collection of fitness landscapes (doi:10.1126/science.1257360).

This is one part of the list.

To fix the notation:
B1: PhoQ; a variant is named by its letters at X, in order, P23837 (parent)
chain: MKKLLRLFFPLSLRVRFLLATAAVVLVLSLAYGMVALIGYSVSFDKTTFRLLRGESNLFYTLAKWENNKLHVELPENIDKQSPTMTLIYDENGQLLWAQRDVPWLMKMIQPDWLKSNGFHEIEADVNDTSLLLSGDHSIQQQLQEVREDDDDAEMTHSVAVNVYPATSRMPKLTIVVVDTIPVELKSSYMVWSWFIYVLSANLLLVIPLLWVAAWWSLRPIEALAKEVRELEEHNRELLNPATTRELTSLVRNLNRLLKSERERYDKYRTTLTDLTHSLKTPLXXLQXXLRSLRSEKMSVSDAEPVMLEQISRISQQIGYYLHRASMRGGTLLSRELHPVAPLLDNLTSALNKVYQRKGVNISLDISPEISFVGEQNDFVEVMGNVLDNACKYCLEFVEISARQTDEHLYIVVEDDGPGIPLSKREVIFDRGQRVDTLRPGQGVGLAVAREITEQYEGKIVAGESMLGGARMEVIFGRQHSAPKDE

The variants in this assay derive from B1. As to the kind of experiment: enrichment ratio after two sorts for PhoP signalling (ratio (wild type AVST 3.29)); higher = more functional. The note with it: with PhoP (E. coli).
For the variant GMVF, the enrichment ratio came to 3.94.

TCCE: the enrichment ratio is at most 0.25. Under ALGE stands at most 0.25. Under RCEC stands at most 0.25; under HGGL, at most 0.25. Turning to ETLR, the enrichment ratio was at most 0.25. In the case of PAML, the enrichment ratio was at most 0.25. The value for IECM was at most 0.25. Under YMLP stands at most 0.25; under PAYR, at most 0.25. The value for SDTM was at most 0.25; that for TYVF was at most 0.25; that for NACL was 4.16. Consider VTES, for which the enrichment ratio was at most 0.25. For PFEV, the enrichment ratio is at most 0.25. Under NPIL stands at most 0.25; under EFAC, at most 0.25; under PCRL, at most 0.25. The value for TFHG was at most 0.25; that for WKDW was at most 0.25; that for HRSY was at most 0.25. For the variant DHIA, the enrichment ratio is at most 0.25. As for LMIF, the enrichment ratio is at most 0.25.

Take KGSF: the enrichment ratio is at most 0.25. The value for TFTC was 4.88. For the variant KGNS, the enrichment ratio was at most 0.25.

For SLDH, the enrichment ratio is at most 0.25.

Regarding VGCR, the enrichment ratio is at most 0.25.

For NRFV, the enrichment ratio is at most 0.25.

Take HVAR: the enrichment ratio was at most 0.25. The value for KYAP was at most 0.25; that for FDYH was at most 0.25.

In the case of TTKG, the enrichment ratio is at most 0.25. Under HPER stands at most 0.25.

In the case of RPDY, the enrichment ratio was at most 0.25. The value for NNIN was at most 0.25; that for LSHG was at most 0.25; that for RWRC was at most 0.25. The value for APYR was at most 0.25; that for RRMI was at most 0.25. The value for LILE was at most 0.25; that for YTRP was at most 0.25; that for PKAF was at most 0.25. In the case of KFFR, the enrichment ratio was at most 0.25. Under WGGW stands at most 0.25.

Take FYEN: the enrichment ratio is at most 0.25.

For the variant IIRG, the enrichment ratio was at most 0.25. The value for GFGV was at most 0.25; that for VSVD was 0.654.

As for QGWV, the enrichment ratio was 18.5.

As to TKLD, the enrichment ratio is 3.39. Consider FYMP, for which the enrichment ratio is at most 0.25. Take TYLC: the enrichment ratio came to 2.2. The value for PDWC was at most 0.25. Under GMFQ stands at most 0.25; under MHKD, at most 0.25. EYRQ: the enrichment ratio was at most 0.25.

Take PPDL: the enrichment ratio was at most 0.25. As to GPIH, the enrichment ratio was at most 0.25. Under IFFA stands at most 0.25; under EDVK, at most 0.25; under LSFP, at most 0.25. The value for HPEA was at most 0.25.

Take QKQH: the enrichment ratio was at most 0.25. Consider FKVA, for which the enrichment ratio was at most 0.25. With NMEW, the enrichment ratio was at most 0.25. For the variant VAAK, the enrichment ratio was at most 0.25.

For RKKE, the enrichment ratio was at most 0.25.

Consider ALRK, for which the enrichment ratio is at most 0.25. Consider RFRQ, for which the enrichment ratio was at most 0.25. Under CLYY stands at most 0.25; under ELWP, at most 0.25. Turning to DETW, the enrichment ratio is at most 0.25. For DWWK, the enrichment ratio was at most 0.25. Under ECEW stands at most 0.25; under EITH, at most 0.25; under NNNS, at most 0.25.

Turning to HFFP, the enrichment ratio was at most 0.25. The value for FTED was at most 0.25.

As for FWGG, the enrichment ratio was at most 0.25.

Consider FECE, for which the enrichment ratio was at most 0.25. In the case of RVFV, the enrichment ratio is at most 0.25. The value for PFLV was at most 0.25; that for SWRE was at most 0.25; that for IVMV was at most 0.25. The value for FPLC was at most 0.25. For the variant FAIT, the enrichment ratio was at most 0.25.

As for AMGR, the enrichment ratio was at most 0.25. Regarding DDIA, the enrichment ratio is at most 0.25.

For HTMF, the enrichment ratio amounted to 0.694. Consider FYRP, for which the enrichment ratio was at most 0.25.

As to VYKP, the enrichment ratio is at most 0.25. The value for PCQE was at most 0.25; that for AMKY was at most 0.25.

On to RRAN, for which the enrichment ratio is at most 0.25. As for SWKQ, the enrichment ratio is at most 0.25. The value for MMCD was at most 0.25.

Turning to WPYK, the enrichment ratio was at most 0.25. Consider HPQF, for which the enrichment ratio is at most 0.25. With VLSC, the enrichment ratio is at most 0.25. Consider NNYH, for which the enrichment ratio is at most 0.25.

With WYPA, the enrichment ratio is at most 0.25.

For the variant EVSA, the enrichment ratio was at most 0.25.

As to SHYE, the enrichment ratio was at most 0.25. Under MMIL stands at most 0.25. In the case of YNIW, the enrichment ratio is at most 0.25. In the case of WEIA, the enrichment ratio was at most 0.25. Under AKDI stands at most 0.25; under SKFP, at most 0.25; under QFPE, at most 0.25.

As for VHPW, the enrichment ratio was at most 0.25. The value for GEVR was 0.326.

As to RWRH, the enrichment ratio is 1.19. The value for TADM was 2.62. Regarding KPFV, the enrichment ratio was at most 0.25. Take QMPW: the enrichment ratio is at most 0.25. The value for TWFH was at most 0.25. As for GDCV, the enrichment ratio worked out at 1.12. The value for IRWC was at most 0.25. The value for AAFF was at most 0.25. Under PWGG stands at most 0.25; under DFKT, at most 0.25; under FYHK, at most 0.25. For QWLI, the enrichment ratio is at most 0.25.

Regarding MYWN, the enrichment ratio is at most 0.25. Regarding WGTG, the enrichment ratio came out at 1.13. Under LTQC stands at most 0.25. The value for MAIW was at most 0.25. Under QMIA stands at most 0.25; under HEAS, at most 0.25; under DFSF, at most 0.25.

Regarding CLQP, the enrichment ratio was at most 0.25. Take TWCC: the enrichment ratio was at most 0.25. For the variant EKEL, the enrichment ratio was at most 0.25. Turning to NYPM, the enrichment ratio was at most 0.25. Regarding INHS, the enrichment ratio was at most 0.25. Regarding WQYC, the enrichment ratio was at most 0.25. With YRSI, the enrichment ratio is at most 0.25. As to DWKV, the enrichment ratio was at most 0.25. As to FSQF, the enrichment ratio is at most 0.25. The value for IALI was 9.02. In the case of GIDR, the enrichment ratio was at most 0.25. Under HRMK stands at most 0.25; under LHCA, at most 0.25. Under IKLF stands at most 0.25.

Regarding YKHY, the enrichment ratio is at most 0.25. Under KTVP stands at most 0.25; under IFWM, at most 0.25; under LTSN, at most 0.25. The value for TQVH was 8.69. The value for VHPT was at most 0.25; that for TFAG was 2.03. PARK: the enrichment ratio is at most 0.25.
